According to PubChem BioAssay AID1508623 (National Center for Advancing Translational Sciences (NCATS), 2021):
Out of some 48,000 compounds screened, about 450 (0.94%) were called active. The shares of active, inactive and inconclusive entries below differ from those in the screen. Calls follow the shape of the dose curve; as a rule, active = well fitted inhibition curve with a large enough effect; inconclusive = small, poorly fitted or top-dose-only effect; inactive = no such curve, though single readings can be large or run the other way. Potencies of inconclusive entries are doubtful fits and often do not repeat.

Assay: Primary qHTS for Identification of Small Molecule Inhibitors of Huntingtin Promoter Activity; also: nearly all actives have a fitted effect of over 50% in size
Details: HEK293 HTT promoter firefly luciferase reporter (activity 0% = vehicle and -100% = no light), 24 h; series mostly up to 57.5 µM
From the text: Assay Provider: Russell L. Margolis M.D.
Department Neurology, Johns Hopkins University School of Medicine, Baltimore, MD
Huntington's Disease (HD) is a neurodegenerative disorder caused by a CAG repeat expansion in exon 1 of huntingtin (HTT). While there are currently no disease-modifying treatments for HD, recent efforts have focused on development of nucleotide-based therapeutics to lower HTT expression. As an alternative to siRNA or oligonucleotide methods, we hypothesized that suppression of HTT expression might be accomplished by small molecules that either (1) directly decrease HTT expression by suppressing HTT promoter activity or (2) indirectly decrease HTT expression by increasing the promoter activity of HTT-AS, the gene antisense to HTT that appears to inhibit expression of HTT.
We developed and employed a high throughput screen for modifiers of HTT and HTT-AS promoter activity using luminescent reporter HEK293 cells; of the 52,041 compounds tested, we identified 898 replicable hits. We used a rigorous stepwise approach to assess compound toxicity and the capacity of the compounds to specifically lower huntingtin protein in 5 different cell lines, including HEK293 cells, HD lymphoblastoid cells, mouse primary neurons, HD iPSCs differentiated into cortical-like neurons, and HD hESCs. We found no compounds which were able to lower huntingtin without lowering cell viability in all assays, though the potential efficacy of a few compounds at non-toxic doses could not be excluded.
SEQUENCE No. (1, 2, 3, etc.); […] (e.g., Cells, Incubation, Reagent, etc.); VALUE and DESCRIPTION.
1; Reagent; 4 uL; 2,500 Hek293 luciferase reporter cells per wells
3; Compound; 23 nL; Control inhibitor / compound library
5; Reagent; 2.5 uL; Firefly Luc reagent; Dual-Glo Luciferase Reporter Assay System (Promega)
6; Time; 10 min; room temperature incubation
7; Detection; Luminescence; FLuc
NOTES (numbers refer to sequence above)
1; High-throughput screening, measuring luminescence from a Hek293 luciferase reporter, was performed in 1,536 well white-walled tissue-culture treated plates. 2,500 cells were plated in 4 µL of Opti-MEM per well using a Multidrop Combi Reagent Dispenser (ThermoFisher).
2; Assay plates were cultured for 24 hours.
3; Control inhibitor (PTC124; final concentration of 50 uM) and compound library (at final concentrations of 460 nM - 57.5 uM) were added to the assay plate using the Kalypsis Pintool Robotic System equipped with 1536 pinheads.
4; Cells were then incubated for 24 hours at 37 degrees C prior to luminescence measurements.
5; In all cases, luminescence was measured using the Dual-Glo Luciferase Reporter Assay System (Promega) following the manufacturer's instructions.
6; Room temperature incubation.
7; Luminescence signal was obtained using the PerkinElmer ViewLux plate reader. Results were normalized to vehicle control (0% activity) and zero RLU (-100% activity).
Potency is read from the fitted curve at half-maximal effect; tags tell the direction and shape of the fitted curve.

Row | Compound | Potency
1 | Cc1ccc(NC(=O)N2CCc3c([nH]c4ccccc34)C2c2ccccc2F)c(Cl)c1 (stereo unspecified) | inconclusive: 25.1 µM [inhibitor, partial curve]
2 | Cc1ccc(C)c(NS(=O)(=O)c2ccc3c(c2)CCCN3C(=O)C2CCC2)c1 | inconclusive: 20 µM [inhibitor, partial curve, poor fit]
3 | CCOC(=O)C1=C(CS(=O)(=O)c2ccc(F)c(C)c2)NC(=O)NC1c1ccc(F)c(F)c1 (stereo unspecified) | inconclusive: 35.5 µM [inhibitor, single point]
4 | Cc1cccc(N2CCN(C(=O)c3cccc(-n4c(C)nc5cccnc54)c3)CC2C)c1 (stereo unspecified) | inconclusive: 12.6 µM [inhibitor, partial curve]
5 | Cc1c(C(=O)Nc2ccccc2Cl)oc2ccc(S(=O)(=O)N3CCCCCC3)cc12 | inactive
6 | COc1ccc(NS(=O)(=O)c2cc3c4c(c2)CC(=O)N4CCC3)cc1Cl | inconclusive: 39.8 µM [inhibitor, single point]
7 | CCn1c(CN2CCC(C)CC2)nc2cc(NC(=O)c3cccc([N+](=O)[O-])c3)ccc21 | inconclusive: 20 µM [inhibitor, single point]
8 | COc1ccc(-c2noc(CSc3nnc(-c4ccncc4)n3-c3cccc(C)c3)n2)cc1OC | inconclusive: 35.5 µM [inhibitor, single point]
9 | CCc1ccc(OCC2c3cc(OC)c(OC)cc3CCN2C(=O)Cc2ccc(OC)c(OC)c2)cc1 (stereo unspecified) | inconclusive: 28.2 µM [inhibitor, single point]
10 | COc1ccc(NC(=O)CCCN2C(=O)C(c3ccccc3)Oc3cccnc32)cc1OC (stereo unspecified) | inconclusive: 31.6 µM [inhibitor, single point]
11 | Cc1cc(N2CCN(C)CC2)nc2ccc(NC(=O)Nc3ccccc3Cl)cc12 | inconclusive: 11.2 µM [inhibitor, partial curve, poor fit]
12 | CSCCC(NC(=O)C1CCCCC1)C(=O)Nc1ccc(F)c(Cl)c1 (stereo unspecified) | inconclusive: 39.8 µM [inhibitor, single point]
13 | COc1cccc(-c2nc(SC(C(C)=O)C(=O)N(C)C)c3c(=O)n(C)c(=O)n(C)c3n2)c1 (stereo unspecified) | inactive
14 | COc1ccc(-n2c(=O)c3c(C)c(C)sc3n(Cc3ccc(F)cc3)c2=O)c(OC)c1 | inconclusive: 39.8 µM [inhibitor, partial curve, poor fit]
15 | CN(C)CCn1nnnc1SCC1=C(C(=O)O)N2C(=O)[C@@H](NC(=O)Cc3csc(N)n3)[C@H]2SC1 | inactive
16 | COc1cc(OC)c(C2C=C(c3ccc(C)cc3)Nc3c(C(=O)Nc4ccccc4)cnn32)cc1OC (stereo unspecified) | inconclusive: 28.2 µM [inhibitor, partial curve, poor fit]
17 | Cc1c2cnn(CC(=O)N3CCCCC3)c(=O)c2c(C)n1Cc1ccc(Cl)cc1 | inconclusive: 11.2 µM [inhibitor, partial curve]
18 | Cc1ccc(NC(=O)c2ccc3c(=O)n4nc(Nc5ccccc5C)sc4nc3c2)cc1C | inactive
19 | COC(=O)C1=C(C)NC(=O)NC1c1cn(-c2ccccc2)nc1-c1ccc(OC)c(Cl)c1 (stereo unspecified) | inconclusive: 35.5 µM [inhibitor, partial curve, poor fit]

Row | Compound | Potency
20 | O=C(NCCc1ccc(Cl)cc1)c1ccc2c(c1)N(Cc1ccc(F)cc1Cl)C(=O)CS2 | inconclusive: 35.5 µM [inhibitor, partial curve, poor fit]
21 | CCn1c(CN2CCCCC2)nc2cc(NC(=O)COc3ccc([N+](=O)[O-])cc3)ccc21 | inconclusive: 12.6 µM [inhibitor, partial curve, poor fit]
22 | COc1ccc(-c2[nH]c(-c3ccccc3)nc2SCC(=O)Nc2ccc3c(c2)OCO3)cc1 | inconclusive: 31.6 µM [inhibitor, partial curve, poor fit]
23 | O=c1cc(-c2ccccc2)oc2cc(O)c(O)c(O)c12 | inactive
24 | COc1ccc(CN2CCN(c3ncnc4sc5c(c34)CCCC5)CC2)cc1F | inconclusive: 28.2 µM [inhibitor, partial curve, poor fit]
25 | CCCCN(C)C(=O)c1ccc2c(c1)N(Cc1cccc(Cl)c1)C(=O)c1ccccc1S2=O (stereo unspecified) | inconclusive: 35.5 µM [inhibitor, single point]
26 | CCC1=Nc2cc(C(=O)NCCCOC(C)C)ccc2Sc2ccc(C)cc21 | inconclusive: 7.08 µM [inhibitor, partial curve]
27 | COC(=O)C1=C(C)NC(C)=C(C(=O)OCCCN2CCC(c3ccccc3)(c3ccccc3)CC2)C1c1cccc([N+](=O)[O-])c1 (stereo unspecified) | inconclusive: 25.1 µM [inhibitor, single point]
28 | Cc1ccc(OCCSc2nc3ccccc3n2CC(=O)N2CCCCC2)cc1C | inactive
29 | COC(=O)c1ccccc1NC(=O)Cn1ncc2c(C)n(Cc3ccc(F)cc3)c(C)c2c1=O | inconclusive: 39.8 µM [inhibitor, single point]
30 | O=C(Cn1cc(S(=O)(=O)Cc2cccc(Cl)c2)c2ccccc21)Nc1ccc(F)c(Cl)c1 | inconclusive: 28.2 µM [inhibitor, single point]
31 | Cc1ccccc1Cc1c(C)nc2c(-c3ccccc3)c(C)[nH]n2c1=O | inconclusive: 25.1 µM [inhibitor, single point]
32 | COc1ccccc1C(=O)NCCc1csc(-c2ccc(C(F)(F)F)cc2)n1 | inconclusive: 35.5 µM [inhibitor, single point]
33 | Cc1ccc(C)c(NC2=C(c3ccc(C(F)(F)F)cc3)C(=O)c3ccccc32)c1 | inconclusive: 28.2 µM [inhibitor, partial curve, poor fit]
34 | CC[C@H](C)C(=O)O[C@H]1C[C@@H](C)C=C2C=C[C@H](C)[C@H](CC[C@@H]3C[C@@H](O)CC(=O)O3)[C@H]21 | inconclusive: 27.3 µM [inhibitor, partial curve]
35 | Cc1cccc(Cn2nnc3c(=O)[nH]c(C4CCCN(C(=O)c5ccc(C(C)(C)C)cc5)C4)nc32)c1 (stereo unspecified) | inconclusive: 31.6 µM [inhibitor, single point]
36 | CCCN1CCCc2cc(CN(CCCN3CCOCC3)C(=O)Nc3ccc(OCC)cc3)ccc21 | inactive
37 | Cn1c2ccccc2c2c(C(=O)N3CCN(c4cccc(C(F)(F)F)c4)CC3)cn(C3CCCCC3)c(=O)c21 | inconclusive: 31.6 µM [inhibitor, single point]
38 | CCC(C(=O)Nc1cc(OC)ccc1OC)n1nc(-c2ccccc2)c2c(c1=O)CCCC2 (stereo unspecified) | inconclusive: 28.2 µM [inhibitor, partial curve, poor fit]

Row | Compound | Potency
39 | O=C(COCc1cc(-c2ccc3c(c2)OCO3)on1)N1CCN(c2cccc(C(F)(F)F)c2)CC1 | inconclusive: 39.8 µM [inhibitor, partial curve, poor fit]
40 | COc1cc2nc(NC(=O)c3ccc(S(=O)(=O)N4CCCC4)cc3)sc2cc1OC | inconclusive: 3.98 µM [inhibitor, partial curve, poor fit]
41 | Cc1ccc(-n2ccnc(NCc3cccs3)c2=O)cc1C | inconclusive: 39.8 µM [inhibitor, single point]
42 | Cc1cccc(Cn2c(SCc3ccc(C(=O)NCc4ccccc4F)cc3)nc3cccnc32)c1 | inconclusive: 14.1 µM [inhibitor, partial curve, poor fit]
43 | CN1C(C(=O)NC(C)(C)C)=CC(c2ccc3c(c2)OCO3)=NS1(=O)=O | inconclusive: 31.6 µM [inhibitor, single point]
44 | COc1cccc(NS(=O)(=O)c2ccc3[nH]cc(C(=O)NCCc4ccc(C)cc4)c(=O)c3c2)c1 | inconclusive: 12.6 µM [inhibitor, partial curve, poor fit]
45 | CCOC(=O)c1cc(-c2ccc(F)cc2)n(CCC(=O)NCc2ccc(C)cc2)c1C | inconclusive: 11.2 µM [inhibitor, partial curve, poor fit]
46 | CCCN1C(C(=O)c2ccccc2)=C(OC(=O)C(C)(C)C)c2ccccc2S1(=O)=O | inconclusive: 22.4 µM [inhibitor, single point]
47 | O=C(Cn1ncc2c3ccccc3n(Cc3cccc(Cl)c3)c2c1=O)N1CCCCC1 | inconclusive: 25.1 µM [inhibitor, single point]
48 | COc1cccc(NC(=O)CN2C(=O)C3(SCC(=O)N3c3cc(C)cc(C)c3)c3ccccc32)c1 (stereo unspecified) | inconclusive: 22.4 µM [inhibitor, single point]
49 | Cc1ccc(CN2C(=O)N(c3ccc(C)c(Cl)c3)S(=O)(=O)c3ccccc32)cc1 | inconclusive: 15.8 µM [inhibitor, partial curve, poor fit]
50 | CCOc1ccc(CNC(=O)c2cnc(SC)nc2C)cc1 | inconclusive: 15.8 µM [inhibitor, partial curve, poor fit]
51 | O=C(Nc1ccc(Cl)cc1C(F)(F)F)c1cc(S(=O)(=O)NCc2ccccc2)ccc1F | inconclusive: 31.6 µM [inhibitor, single point]
52 | CCc1ccc(CNC(=O)c2ccc(CS(=O)(=O)Cc3ccccc3C)o2)cc1 | inconclusive: 39.8 µM [inhibitor, single point]
53 | CC1=C(C(=O)OC2CCCC2)C(c2cccc(Cl)c2Cl)CC(=O)N1 (stereo unspecified) | inconclusive: 31.6 µM [inhibitor, single point]
54 | CCC1Oc2ccccc2N(CC(=O)NCc2ccc(C)cc2)C1=O (stereo unspecified) | inactive
55 | COc1ccc(Br)cc1CNC(=O)c1cc2c(=O)n(C)c3ccccc3c2s1 | inactive
56 | CC(=O)c1ccc(NC(=O)COc2ccccc2-c2nc(C)no2)cc1 | inactive
